From the antibiotic and cytotoxicity screens of Wong et al. (2023) come the findings set out here.

The other results are listed elsewhere or left out.

One test concerns HepG2. The experiment in a line: cytotoxicity call (relative viability < 0.9). Particulars: 10 µM.
In the case of `Cc1nc(=O)c2c([nH]1)CCSC2`, the cytotoxicity call was “inactive”.

`CC(C)NC(=O)Nc1ccc2c(c1)C(=O)N([C@@H](C)CO)C[C@@H](C)[C@H](CN(C)C(=O)Nc1ccc3c(c1)OCO3)O2`: the cytotoxicity call is “inactive”.

Consider `COc1ccc(NC(=O)N(C)C[C@H]2Oc3c(NC(=O)c4cnccn4)cccc3C(=O)N([C@@H](C)CO)C[C@H]2C)cc1`, for which the cytotoxicity call was “inactive”.

For `C[C@@H]1CN([C@@H](C)CO)C(=O)c2cc(NC(=O)Nc3ccccc3)ccc2O[C@@H](C)CCCCO[C@H]1CN(C)C(=O)C1CCCCC1`, the cytotoxicity call is “inactive”.

For the molecule `C[C@H]1CN([C@@H](C)CO)C(=O)Cc2cc(NC(=O)CCC(F)(F)F)ccc2O[C@@H]1CN(C)C(=O)Nc1ccc(C(F)(F)F)cc1`, the cytotoxicity call is “inactive”.

For the molecule `Cc1ccc(S(=O)(=O)N(C)C[C@@H]2Oc3ccc(NS(=O)(=O)c4cn(C)cn4)cc3C(=O)N([C@@H](C)CO)C[C@H]2C)cc1`, the cytotoxicity call was “inactive”.

Regarding `Cc1noc(C)c1S(=O)(=O)Nc1ccc2c(c1)C(=O)N([C@H](C)CO)C[C@H](C)[C@H](CN(C)CC1CCCCC1)OCCCC[C@@H](C)O2`, the cytotoxicity call is “inactive”.

Regarding `COc1ccc2c3c(n(c2c1)C)[C@@H](CO)N(CC1CCCC1)C[C@]13CCN(CC1)C(=O)Nc1ccccc1`, the cytotoxicity call was “active”.

As for `c1cc(-c2nn[nH]n2)ccc1OCc1nn[nH]n1`, the cytotoxicity call was “inactive”.

Regarding `C=C/C=C/[C@H]1C(=C)CN([C@H](Cc2ccc(-n3cc(C(=O)NO)nn3)cc2)C(=O)OC)[C@@H]1[C@H](O)Cc1ccccc1`, the cytotoxicity call was “inactive”.

Turning to `CC(=O)N1CCN(CC(N)=S)CC1`, the cytotoxicity call is “inactive”.

With `COc1ccc(S(=O)(=O)Nc2ccc3c(c2)C(=O)N([C@@H](C)CO)C[C@H](C)[C@@H](CN(C)S(=O)(=O)c2ccc(C)cc2)O3)cc1`, the cytotoxicity call is “inactive”.

With `C[C@H](CO)N1C[C@H](C)[C@H](CN(C)Cc2cccc3c2OCCCO3)OCc2cnnn2CCCC1=O`, the cytotoxicity call is “inactive”.

As to `c1cc[n+](C[n+]2ccccc2)cc1`, the cytotoxicity call is “inactive”.

Take `COc1ccc(S(=O)(=O)N[C@@H]2C=C[C@@H](CC(=O)N3CCN(c4ccccc4)CC3)O[C@H]2CO)cc1`: the cytotoxicity call is “inactive”.

For a further test, the system named is S. aureus RN4220. The experiment in a line: growth inhibition call (relative growth <= 0.2). Particulars: 50 µM.
Turning to `COc1ccc(NC(=O)Nc2ccc3c(c2)C(=O)N([C@H](C)CO)C[C@H](C)[C@H](CN(C)Cc2ccc(Cl)c(Cl)c2)OCCCC[C@@H](C)O3)cc1`, the growth inhibition call was “inactive”.

Take `O=C(C[C@H]1CC[C@H]2[C@@H](COC[C@@H](O)CN2Cc2ccccc2F)O1)N[C@@H]1CCN(Cc2ccccc2)C1`: the growth inhibition call was “inactive”.

For `COc1ccc(COC[C@]23N=C4SCCCN4[C@H](c4ccccc4O2)[C@H]3CO[Si](C)(C)C(C)(C)C)cc1`, the growth inhibition call was “inactive”.

On to `COc1ccc(S(=O)(=O)N(C)C[C@@H]2Oc3ccc(NC(=O)Nc4cccc5c4CCCC5)cc3CC(=O)N([C@@H](C)CO)C[C@@H]2C)cc1Cl`, for which the growth inhibition call was “inactive”.

`NCCCC(O)(P(=O)(O)O)P(=O)(O)O`: the growth inhibition call is “inactive”.

Regarding `C[C@@H]1CN([C@H](C)CO)C(=O)Cc2cc(NC(=O)CCN3CCOCC3)ccc2O[C@H]1CN(C)Cc1ccccc1`, the growth inhibition call is “inactive”.

With `C[C@@H]1CN([C@H](C)CO)C(=O)c2cc(NC(=O)Cc3cn(C)c4ccccc34)ccc2O[C@@H]1CN(C)S(C)(=O)=O`, the growth inhibition call is “inactive”.

With `CC(C)NC(=O)N(C)C[C@@H]1Oc2ccc(NC(=O)C3CCCCC3)cc2C(=O)N([C@H](C)CO)C[C@@H]1C`, the growth inhibition call was “inactive”.

Regarding `C[C@H]1CN([C@@H](C)CO)S(=O)(=O)c2ccc(-c3ccc(C#N)cc3)cc2O[C@H]1CN(C)C(=O)CN(C)C`, the growth inhibition call was “inactive”.

Turning to `C[C@@H]1CN([C@H](C)CO)C(=O)c2cc(NS(=O)(=O)c3ccc(F)cc3)ccc2O[C@H]1CN(C)CC1CC1`, the growth inhibition call was “inactive”.

As to `C[C@@H]1CN([C@@H](C)CO)C(=O)c2cccc(NC(=O)C3CC3)c2O[C@@H]1CN(C)S(=O)(=O)c1ccc(F)cc1`, the growth inhibition call is “inactive”.

Take `O=C1N[C@@H](Cc2c[nH]c3ccccc23)COC(=O)[C@@H](Cc2ccc(F)cc2)CCC=CC[C@H]1CC(=O)N(CCO)Cc1ccccc1`: the growth inhibition call is “inactive”.

As to `N[C@H](CSCSC[C@H](N)C(=O)O)C(=O)O`, the growth inhibition call is “inactive”.

Take `CN(C)CC(=O)N[C@H]1CC[C@@H](CCNC(=O)C2CCC2)O[C@@H]1CO`: the growth inhibition call is “inactive”.

In the case of `C[C@@H]1CN([C@@H](C)CO)C(=O)c2cccc(NC(=O)C3CC3)c2O[C@@H]1CN(C)Cc1ccc2c(c1)OCO2`, the growth inhibition call was “inactive”.

As to `NNc1ccc2[nH]c(=O)[nH]c2c1`, the growth inhibition call was “inactive”.

In the case of `C[N+](C)(CCOc1ccccc1)Cc1ccccc1.O=C([O-])c1cc2ccccc2cc1O`, the growth inhibition call is “inactive”.

As to `Cc1ccc(S(=O)(=O)N(C)C[C@@H]2Oc3ccc(NS(=O)(=O)c4ccc(F)cc4)cc3CC(=O)N([C@@H](C)CO)C[C@@H]2C)cc1`, the growth inhibition call is “inactive”.

Consider `C[C@@H]1CN([C@@H](C)CO)S(=O)(=O)c2ccc(-c3cccc(C(=O)N(C)C)c3)cc2O[C@H]1CN(C)C(=O)Cc1ccccn1`, for which the growth inhibition call was “inactive”.

As for `C[C@H]1CN([C@@H](C)CO)C(=O)c2cc(NC(=O)Nc3ccc(C(F)(F)F)cc3)ccc2O[C@@H]1CN(C)C(=O)Nc1ccc(C(F)(F)F)cc1`, the growth inhibition call was “inactive”.

As for `C[C@]12NC(=O)N[C@H](c3ccccc3O1)[C@H]2CO`, the growth inhibition call is “inactive”.

Consider `C(=N\n1cnnc1)/c1ccco1`, for which the growth inhibition call is “inactive”.

Regarding `C[C@H](CO)N1C[C@H](C)[C@H](CN(C)Cc2ccc(C(=O)O)cc2)Oc2c(NS(=O)(=O)c3cn(C)cn3)cccc2C1=O`, the growth inhibition call is “inactive”.

With `C[C@@H]1CCCCO[C@@H](CN(C)C(=O)Nc2ccc(F)cc2)[C@H](C)CN([C@@H](C)CO)C(=O)c2cc(NC(=O)Cc3ccccc3)ccc2O1`, the growth inhibition call is “inactive”.

As to `Cc1nc(=O)c2c([nH]1)CCSC2`, the growth inhibition call is “inactive”.

As for `CC(C)NC(=O)Nc1ccc2c(c1)C(=O)N([C@@H](C)CO)C[C@@H](C)[C@H](CN(C)C(=O)Nc1ccc3c(c1)OCO3)O2`, the growth inhibition call is “inactive”.

For `COc1ccc(NC(=O)N(C)C[C@H]2Oc3c(NC(=O)c4cnccn4)cccc3C(=O)N([C@@H](C)CO)C[C@H]2C)cc1`, the growth inhibition call is “inactive”.

With `C[C@@H]1CN([C@@H](C)CO)C(=O)c2cc(NC(=O)Nc3ccccc3)ccc2O[C@@H](C)CCCCO[C@H]1CN(C)C(=O)C1CCCCC1`, the growth inhibition call is “inactive”.

Regarding `C[C@H]1CN([C@@H](C)CO)C(=O)Cc2cc(NC(=O)CCC(F)(F)F)ccc2O[C@@H]1CN(C)C(=O)Nc1ccc(C(F)(F)F)cc1`, the growth inhibition call was “inactive”.

For the molecule `Cc1ccc(S(=O)(=O)N(C)C[C@@H]2Oc3ccc(NS(=O)(=O)c4cn(C)cn4)cc3C(=O)N([C@@H](C)CO)C[C@H]2C)cc1`, the growth inhibition call was “inactive”.

For the molecule `Cc1noc(C)c1S(=O)(=O)Nc1ccc2c(c1)C(=O)N([C@H](C)CO)C[C@H](C)[C@H](CN(C)CC1CCCCC1)OCCCC[C@@H](C)O2`, the growth inhibition call is “inactive”.

`COc1ccc2c3c(n(c2c1)C)[C@@H](CO)N(CC1CCCC1)C[C@]13CCN(CC1)C(=O)Nc1ccccc1`: the growth inhibition call was “inactive”.

Take `c1cc(-c2nn[nH]n2)ccc1OCc1nn[nH]n1`: the growth inhibition call was “inactive”.

For `C=C/C=C/[C@H]1C(=C)CN([C@H](Cc2ccc(-n3cc(C(=O)NO)nn3)cc2)C(=O)OC)[C@@H]1[C@H](O)Cc1ccccc1`, the growth inhibition call was “inactive”.

In the case of `CC(=O)N1CCN(CC(N)=S)CC1`, the growth inhibition call is “inactive”.

With `COc1ccc(S(=O)(=O)Nc2ccc3c(c2)C(=O)N([C@@H](C)CO)C[C@H](C)[C@@H](CN(C)S(=O)(=O)c2ccc(C)cc2)O3)cc1`, the growth inhibition call is “inactive”.

With `C[C@H](CO)N1C[C@H](C)[C@H](CN(C)Cc2cccc3c2OCCCO3)OCc2cnnn2CCCC1=O`, the growth inhibition call was “inactive”.

In the case of `c1cc[n+](C[n+]2ccccc2)cc1`, the growth inhibition call was “inactive”.

Turning to `COc1ccc(S(=O)(=O)N[C@@H]2C=C[C@@H](CC(=O)N3CCN(c4ccccc4)CC3)O[C@H]2CO)cc1`, the growth inhibition call is “inactive”.
